Results taken from the supplement of paper PMC4604168 (melanoma cell lines).
The other results are listed elsewhere or left out. Most values come without repeats; read them as rough.

What was measured:
Test in all cases: cell count relative to DMSO control; melanoma cells; higher = more viable cells
Conditions in all cases: library dose: low library concentration; 72 h
MZ2-MEL = system: MZ2-MEL
MeWo = system: MeWo
RPMI7951 = system: RPMI7951
RVH-421 = system: RVH-421
SkMel28 = system: SkMel28
SkMel2 = system: SkMel2
SkMel30 = system: SkMel30
SkMel5 = system: SkMel5
UACC257 = system: UACC257
UACC62 = system: UACC62
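Also: cell number obtained by counting DAPI-stained nuclei in high-throughput microscope images with image analysis software, screen run in 1,536-well plates.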

SMILES	cell count (MZ2-MEL) [%]	cell count (MeWo) [%]	cell count (RPMI7951) [%]	cell count (RVH-421) [%]	cell count (SkMel28) [%]	cell count (SkMel2) [%]	cell count (SkMel30) [%]	cell count (SkMel5) [%]	cell count (UACC257) [%]	cell count (UACC62) [%]
N#CC[C@H](C1CCCC1)n1cc(-c2ncnc3[nH]ccc23)cn1 [ruxolitinib] + CCc1ccc(CCOc2ccc(CC3SC(=O)NC3=O)cc2)nc1 [pioglitazone] (first compound 1 µM, partner dose 2 µM)	103	93.8	107	57.1	122	101	85.8	102	107	113
CC[C@]1(O)C[C@H]2CN(CCc3c([nH]c4ccccc34)[C@@](C(=O)OC)(c3cc4c(cc3OC)N(C=O)[C@H]3[C@@](O)(C(=O)OC)[C@H](OC(C)=O)[C@]5(CC)C=CCN6CC[C@]43[C@@H]65)C2)C1 [vincristine] + Cc1ccc(NC(=O)c2cccc(N(C)C)c2)cc1NC(=O)c1ccc(O)cc1 [ZM336372] (first compound 0.0001 µM, partner dose 2 µM)	83.2	78.5	51.6	89.6	57.7	101	57.6	79.4	25.7	42.2
N#CC[C@H](C1CCCC1)n1cc(-c2ncnc3[nH]ccc23)cn1 [ruxolitinib] + N#Cc1c(O)c2c(-c3ccc(-c4ccccc4O)cc3)csc2[nH]c1=O [A769662] (first compound 1 µM, partner dose 2 µM)	101	84.7	92.1	100	93.2	95.4	87.9	102	98.8	90.7
Cc1cc(Nc2cc(N3CCN(C)CC3)nc(Sc3ccc(NC(=O)C4CC4)cc3)n2)n[nH]1 [Tozasertib] + C[C@@H]1CCN(C(=O)CC#N)C[C@@H]1N(C)c1ncnc2[nH]ccc12 [CP690550] (first compound 0.006 µM, partner dose 1 µM)	102	89.1	120	86.7	96.7	90.4	83.8	99.8	101	97.2
Cc1cc(Nc2cc(N3CCN(C)CC3)nc(Sc3ccc(NC(=O)C4CC4)cc3)n2)n[nH]1 [Tozasertib] + Cn1cc(/C=C2\C(=O)Nc3cccnc32)c2ccccc21 [GW441756] (first compound 0.006 µM, partner dose 0.4 µM)	93	83.7	99.7	69.1	95.1	105	98.7	83.5	87.3	104
CC[C@]1(O)C[C@H]2CN(CCc3c([nH]c4ccccc34)[C@@](C(=O)OC)(c3cc4c(cc3OC)N(C=O)[C@H]3[C@@](O)(C(=O)OC)[C@H](OC(C)=O)[C@]5(CC)C=CCN6CC[C@]43[C@@H]65)C2)C1 [vincristine] + c1cc(-c2cnn3cc(-c4ccc(OCCN5CCCCC5)cc4)cnc23)ccn1 [Dorsomorphin] (first compound 0.0001 µM, partner dose 0.4 µM)	80.5	63.1	37.2	66.6	55.3	74.4	40.8	83	48.9	39.8
CC[C@]1(O)C[C@H]2CN(CCc3c([nH]c4ccccc34)[C@@](C(=O)OC)(c3cc4c(cc3OC)N(C=O)[C@H]3[C@@](O)(C(=O)OC)[C@H](OC(C)=O)[C@]5(CC)C=CCN6CC[C@]43[C@@H]65)C2)C1 [vincristine] + CCN(CC)CCCCNc1ncc2cc(-c3cc(OC)cc(OC)c3)c(NC(=O)NC(C)(C)C)nc2n1 [PD173074] (first compound 0.0001 µM, partner dose 0.1 µM)	94.7	88.5	81.3	114	85.8	105	63.5	94	83.2	80.1
Cc1cc(Nc2cc(N3CCN(C)CC3)nc(Sc3ccc(NC(=O)C4CC4)cc3)n2)n[nH]1 [Tozasertib] + CCN(CC)CCCCNc1ncc2cc(-c3cc(OC)cc(OC)c3)c(NC(=O)NC(C)(C)C)nc2n1 [PD173074] (first compound 0.006 µM, partner dose 0.1 µM)	94.2	86.9	90.1	93.6	91.1	95	99.4	112	86.8	91.4
N#CC[C@H](C1CCCC1)n1cc(-c2ncnc3[nH]ccc23)cn1 [ruxolitinib] + COc1cc2c(Oc3ccc4[nH]c(C)cc4c3F)ncnc2cc1OCCCN1CCCC1 [cediranib] (first compound 1 µM, partner dose 0.4 µM)	119	101	101	80.6	108	102	148	95	84.3	123
N#CC[C@H](C1CCCC1)n1cc(-c2ncnc3[nH]ccc23)cn1 [ruxolitinib] + Cn1cncc1[C@@](N)(c1ccc(Cl)cc1)c1ccc2c(c1)c(-c1cccc(Cl)c1)cc(=O)n2C [tipifarnib] (first compound 1 µM, partner dose 0.01 µM)	108	89.4	91.4	84.5	90.9	87.8	101	102	78.8	94.3
CC[C@]1(O)C[C@H]2CN(CCc3c([nH]c4ccccc34)[C@@](C(=O)OC)(c3cc4c(cc3OC)N(C=O)[C@H]3[C@@](O)(C(=O)OC)[C@H](OC(C)=O)[C@]5(CC)C=CCN6CC[C@]43[C@@H]65)C2)C1 [vincristine] + O=C(Nc1ccccc1)c1cc([N+](=O)[O-])ccc1Cl [GW9662] (first compound 0.0001 µM, partner dose 2 µM)	95.8	90.2	78.5	82.4	76.3	92.7	46.5	106	76.6	69.4
CC[C@]1(O)C[C@H]2CN(CCc3c([nH]c4ccccc34)[C@@](C(=O)OC)(c3cc4c(cc3OC)N(C=O)[C@H]3[C@@](O)(C(=O)OC)[C@H](OC(C)=O)[C@]5(CC)C=CCN6CC[C@]43[C@@H]65)C2)C1 [vincristine] + Cc1cc([N+](=O)[O-])ccc1NS(=O)(=O)c1cc(Cl)ccc1Cl [FH535] (first compound 0.0001 µM, partner dose 1 µM)	54.1	68.2	36.2	77.4	72.8	62.8	44	83.6	49.2	44.1
N#CC[C@H](C1CCCC1)n1cc(-c2ncnc3[nH]ccc23)cn1 [ruxolitinib] + COc1cc(Nc2ncc(F)c(Nc3ccc4c(n3)NC(=O)C(C)(C)O4)n2)cc(OC)c1OC [Tamatinib] (first compound 1 µM, partner dose 0.4 µM)	86.3	82.2	95.7	108	91.5	107	93.1	84.6	79.6	86.6
Cc1cc(Nc2cc(N3CCN(C)CC3)nc(Sc3ccc(NC(=O)C4CC4)cc3)n2)n[nH]1 [Tozasertib] + O=c1cc(-c2cccc3c2Sc2ccccc2S3)oc(N2CCOCC2)c1 [KU55933] (first compound 0.006 µM, partner dose 1 µM)	102	85.5	80.6	85.1	84.7	98.6	89	107	92.4	90.8
CC[C@]1(O)C[C@H]2CN(CCc3c([nH]c4ccccc34)[C@@](C(=O)OC)(c3cc4c(cc3OC)N(C=O)[C@H]3[C@@](O)(C(=O)OC)[C@H](OC(C)=O)[C@]5(CC)C=CCN6CC[C@]43[C@@H]65)C2)C1 [vincristine] + Cn1cc(/C=C2\C(=O)Nc3cccnc32)c2ccccc21 [GW441756] (first compound 0.0001 µM, partner dose 0.4 µM)	101	71.1	53.8	106	80	93.3	53.3	73.9	72.8	70.4
Cc1cc(Nc2cc(N3CCN(C)CC3)nc(Sc3ccc(NC(=O)C4CC4)cc3)n2)n[nH]1 [Tozasertib] + O=C1NC(=O)/C(=C/c2ccc(-c3ccc(F)cc3O)o2)S1 [AS252424] (first compound 0.006 µM, partner dose 1 µM)	104	86.3	121	80.6	81.4	95.1	101	99.6	85.8	100
Cc1cc(Nc2cc(N3CCN(C)CC3)nc(Sc3ccc(NC(=O)C4CC4)cc3)n2)n[nH]1 [Tozasertib] + CC(=O)O[C@@]12CO[C@@H]1C[C@H](O)[C@@]1(C)C(=O)[C@H](O)C3=C(C)[C@@H](OC(=O)[C@H](O)[C@@H](NC(=O)OC(C)(C)C)c4ccccc4)C[C@@](O)([C@@H](OC(=O)c4ccccc4)[C@H]21)C3(C)C [Docetaxel] (first compound 0.006 µM, partner dose 0.0001 µM)	66.6	65.6	33.8	74.3	60.9	66	50.7	–	–	55.8
N#CC[C@H](C1CCCC1)n1cc(-c2ncnc3[nH]ccc23)cn1 [ruxolitinib] + NC(=O)Nc1cc(-c2cccc(F)c2)sc1C(=O)N[C@H]1CCCNC1 [AZD7762] (first compound 1 µM, partner dose 0.02 µM)	114	98.1	81.6	94.3	121	105	133	107	126	121
CC[C@]1(O)C[C@H]2CN(CCc3c([nH]c4ccccc34)[C@@](C(=O)OC)(c3cc4c(cc3OC)N(C=O)[C@H]3[C@@](O)(C(=O)OC)[C@H](OC(C)=O)[C@]5(CC)C=CCN6CC[C@]43[C@@H]65)C2)C1 [vincristine] + Oc1nc(-c2ccc(C(F)(F)F)cc2)nc2c1CSCC2 [XAV939] (first compound 0.0001 µM, partner dose 2 µM)	97.7	93.9	56.1	102	58.7	93.4	49.6	82.3	63.4	53.2
CC[C@]1(O)C[C@H]2CN(CCc3c([nH]c4ccccc34)[C@@](C(=O)OC)(c3cc4c(cc3OC)N(C=O)[C@H]3[C@@](O)(C(=O)OC)[C@H](OC(C)=O)[C@]5(CC)C=CCN6CC[C@]43[C@@H]65)C2)C1 [vincristine] + C=CCn1c(=O)c2cnc(Nc3ccc(N4CCN(C)CC4)cc3)nc2n1-c1cccc(C(C)(C)O)n1 [MK1775] (first compound 0.0001 µM, partner dose 0.02 µM)	96.2	100	75.1	91.7	81.4	80.2	64.7	68.2	67.6	52.6
